# The other results are listed elsewhere or left out.
# How the values were obtained:
# Assay in all cases: glycan array binding signal (z-score within array); higher = stronger binding
# Conditions in all cases: glycan notation: IUPAC condensed, linker removed
# Gal6S(b1-4)Glc6S = target: Gal6S(b1-4)Glc6S
# Summary of the method: (§1)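 Columns mapping to the same glycan were averaged after glycan names were converted to IUPAC-condensed notation. The data come from 3228 arrays in the Consortium for Functional Glycomics database, limited to those with an available protein sequence. Binding is reported as a within-array Z-score averaged across arrays of one protein sequence and across linkers.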
# Gal6S(b1-4)GlcNAc = target: Gal6S(b1-4)GlcNAc
# Summary of the method: as §1
# Gal6S(b1-4)GlcNAc6S = target: Gal6S(b1-4)GlcNAc6S
# Summary of the method: as §1
# GalNAc(a1-3)Gal = target: GalNAc(a1-3)Gal
# Summary of the method: as §1
# GalNAc(a1-3)GalNAc = target: GalNAc(a1-3)GalNAc
# Summary of the method: as §1
# [1] = target: GalNAc(a1-3)GalNAc(b1-3)Gal(a1-4)Gal(b1-4)Glc
# Summary of the method: as §1
# [2] = target: GalNAc(a1-3)GalNAc(b1-3)Gal(a1-4)Gal(b1-4)GlcNAc
# Summary of the method: as §1
# GalNAc(b1-3)Gal = target: GalNAc(b1-3)Gal
# Summary of the method: as §1
# [3] = target: GalNAc(b1-3)Gal(a1-4)Gal(b1-4)GlcNAc
# Summary of the method: as §1
# [4] = target: GalNAc(b1-3)Gal(a1-4)Gal(b1-4)GlcNAc(b1-3)Gal(b1-4)Glc
# Summary of the method: as §1
# [5] = target: GalNAc(b1-3)Gal(a1-6)Gal(b1-4)Glc
# Summary of the method: as §1
# GalNAc(b1-3)GalNAc = target: GalNAc(b1-3)GalNAc
# Summary of the method: as §1
# GalNAc(b1-4)Gal(b1-4)Glc = target: GalNAc(b1-4)Gal(b1-4)Glc
# Summary of the method: as §1
# GalNAc(b1-4)GlcNAc = target: GalNAc(b1-4)GlcNAc
# Summary of the method: as §1
# [6] = target: GalNAc(b1-4)GlcNAc(b1-2)Man(a1-3)[GalNAc(b1-4)GlcNAc(b1-2)Man(a1-6)]Man(b1-4)GlcNAc(b1-4)GlcNAc
# Summary of the method: as §1
# GalNAc(b1-6)GalNAc = target: GalNAc(b1-6)GalNAc
# Summary of the method: as §1
# Glc(a1-4)Glc = target: Glc(a1-4)Glc
# Summary of the method: as §1
# [7] = target: Glc(a1-4)Glc(a1-4)Glc(a1-4)Glc
# Summary of the method: as §1
# Glc(a1-6)Glc(a1-6)Glc = target: Glc(a1-6)Glc(a1-6)Glc
# Summary of the method: as §1
# [8] = target: Glc(a1-6)Glc(a1-6)Glc(a1-6)Glc
# Summary of the method: as §1
# Glc(b1-4)Glc = target: Glc(b1-4)Glc
# Summary of the method: as §1
# Glc(b1-6)Glc = target: Glc(b1-6)Glc
# Summary of the method: as §1
# GlcA(b1-3)Gal = target: GlcA(b1-3)Gal
# Summary of the method: as §1
# GlcA(b1-3)GlcNAc = target: GlcA(b1-3)GlcNAc
# Summary of the method: as §1
# GlcA(b1-6)Gal = target: GlcA(b1-6)Gal
# Summary of the method: as §1
# [9] = target: GlcNAc(a1-3)Gal(b1-4)GlcNAc
# Summary of the method: as §1
# [10] = target: GlcNAc(a1-4)Gal(b1-3)GlcNAc
# Summary of the method: as §1
# [11] = target: GlcNAc(a1-4)Gal(b1-4)GalNAc
# Summary of the method: as §1
# [12] = target: GlcNAc(a1-4)Gal(b1-4)GlcNAc
# Summary of the method: as §1
# [13] = target: GlcNAc(a1-4)Gal(b1-4)GlcNAc(b1-3)Gal(b1-4)Glc
# Summary of the method: as §1
# [14] = target: GlcNAc(a1-4)Gal(b1-4)GlcNAc(b1-3)Gal(b1-4)GlcNAc
# Summary of the method: as §1
# [15] = target: GlcNAc(a1-4)Gal(b1-4)GlcNAc(b1-3)Gal(b1-4)GlcNAc(b1-3)Gal(b1-4)GlcNAc
# Summary of the method: as §1
# [16] = target: GlcNAc(a1-4)Gal(b1-4)GlcNAc(b1-3)Gal(b1-4)[Fuc(a1-3)]GlcNAc(b1-3)Gal(b1-4)[Fuc(a1-3)]GlcNAc
# Summary of the method: as §1
# [17] = target: GlcNAc(a1-6)Gal(b1-4)GlcNAc
# Summary of the method: as §1
# [18] = target: GlcNAc(b1-2)Gal(b1-3)GalNAc
# Summary of the method: as §1
# [19] = target: GlcNAc(b1-2)Man(a1-3)[GlcNAc(b1-2)Man(a1-6)]Man(b1-4)GlcNAc(b1-4)GlcNAc
# Summary of the method: as §1
# [20] = target: GlcNAc(b1-2)Man(a1-3)[GlcNAc(b1-2)Man(a1-6)]Man(b1-4)GlcNAc(b1-4)[Fuc(a1-6)]GlcNAc
# Summary of the method: as §1
# [21] = target: GlcNAc(b1-2)Man(a1-3)[GlcNAc(b1-4)][GlcNAc(b1-2)Man(a1-6)]Man(b1-4)GlcNAc(b1-4)GlcNAc
# Summary of the method: as §1
# [22] = target: GlcNAc(b1-2)[GlcNAc(b1-4)]Man(a1-3)[GlcNAc(b1-2)Man(a1-6)]Man(b1-4)GlcNAc(b1-4)GlcNAc
# Summary of the method: as §1
# [23] = target: GlcNAc(b1-2)[GlcNAc(b1-4)]Man(a1-3)[GlcNAc(b1-4)][GlcNAc(b1-2)Man(a1-6)]Man(b1-4)GlcNAc(b1-4)GlcNAc
# Summary of the method: as §1
# [24] = target: GlcNAc(b1-2)[GlcNAc(b1-4)]Man(a1-3)[GlcNAc(b1-4)][GlcNAc(b1-2)[GlcNAc(b1-6)]Man(a1-6)]Man(b1-4)GlcNAc(b1-4)GlcNAc
# Summary of the method: as §1
# [25] = target: GlcNAc(b1-2)[GlcNAc(b1-6)]Man(a1-6)[GlcNAc(b1-2)Man(a1-3)]Man(b1-4)GlcNAc(b1-4)GlcNAc
# Summary of the method: as §1
# [26] = target: GlcNAc(b1-2)[GlcNAc(b1-6)]Man(a1-6)[GlcNAc(b1-2)Man(a1-3)][GlcNAc(b1-4)]Man(b1-4)GlcNAc(b1-4)GlcNAc
# Summary of the method: as §1
# GlcNAc(b1-3)Gal = target: GlcNAc(b1-3)Gal
# Summary of the method: as §1
# [27] = target: GlcNAc(b1-3)Gal(b1-3)GalNAc
# Summary of the method: as §1
binder,measurement,setting,value
"GNAT (Pseudomonas aeruginosa), Q9HV14 (protein) MQLSHRPAETGDLETVAGFPQDRDELFYCYPKAIWPFSVAQLAAAIAERRGSTVAVHDGQVLGFANFYQWQHGDFCALGNMMVAPAARGLGVARYLIGVMENLAREQYKARLMKISCFNANAAGLLLYTQLGYQPRAIAERHDPDGRRVALIQMDKPLEP",glycan array binding signal (z-score),Gal6S(b1-4)Glc6S,-0.434
same,glycan array binding signal (z-score),Gal6S(b1-4)GlcNAc,-0.282
same,glycan array binding signal (z-score),Gal6S(b1-4)GlcNAc6S,0.187
same,glycan array binding signal (z-score),GalNAc(a1-3)Gal,-0.297
same,glycan array binding signal (z-score),GalNAc(a1-3)GalNAc,-0.283
same,glycan array binding signal (z-score),[1],-0.385
same,glycan array binding signal (z-score),[2],-0.373
same,glycan array binding signal (z-score),GalNAc(b1-3)Gal,-0.348
same,glycan array binding signal (z-score),[3],-0.284
same,glycan array binding signal (z-score),[4],-0.33
same,glycan array binding signal (z-score),[5],-0.41
same,glycan array binding signal (z-score),GalNAc(b1-3)GalNAc,-0.427
same,glycan array binding signal (z-score),GalNAc(b1-4)Gal(b1-4)Glc,-0.354
same,glycan array binding signal (z-score),GalNAc(b1-4)GlcNAc,-0.403
same,glycan array binding signal (z-score),[6],0.908
same,glycan array binding signal (z-score),GalNAc(b1-6)GalNAc,-0.454
same,glycan array binding signal (z-score),Glc(a1-4)Glc,-0.383
same,glycan array binding signal (z-score),[7],-0.475
same,glycan array binding signal (z-score),Glc(a1-6)Glc(a1-6)Glc,-0.33
same,glycan array binding signal (z-score),[8],-0.327
same,glycan array binding signal (z-score),Glc(b1-4)Glc,-0.449
same,glycan array binding signal (z-score),Glc(b1-6)Glc,-0.226
same,glycan array binding signal (z-score),GlcA(b1-3)Gal,-0.072
same,glycan array binding signal (z-score),GlcA(b1-3)GlcNAc,-0.352
same,glycan array binding signal (z-score),GlcA(b1-6)Gal,-0.305
same,glycan array binding signal (z-score),[9],-0.432
same,glycan array binding signal (z-score),[10],-0.356
same,glycan array binding signal (z-score),[11],-0.256
same,glycan array binding signal (z-score),[12],-0.175
same,glycan array binding signal (z-score),[13],-0.338
same,glycan array binding signal (z-score),[14],-0.087
same,glycan array binding signal (z-score),[15],-0.299
same,glycan array binding signal (z-score),[16],3.72
same,glycan array binding signal (z-score),[17],-0.405
same,glycan array binding signal (z-score),[18],-0.405
same,glycan array binding signal (z-score),[19],-0.357
same,glycan array binding signal (z-score),[20],-0.026
same,glycan array binding signal (z-score),[21],-0.416
same,glycan array binding signal (z-score),[22],-0.391
same,glycan array binding signal (z-score),[23],-0.318
same,glycan array binding signal (z-score),[24],-0.25
same,glycan array binding signal (z-score),[25],-0.257
same,glycan array binding signal (z-score),[26],-0.348
same,glycan array binding signal (z-score),GlcNAc(b1-3)Gal,-0.354
same,glycan array binding signal (z-score),[27],-0.422
